Data as given in the supplement of paper PMC11417369.
± gives the standard deviation of the averaged measurements. This is one part of the list.

What follows are sequences tested on PfAP2-G AP2 domain (GST-tagged) (assay: gcPBM binding intensity (ln(normalized median fluorescence intensity)); higher = stronger DNA binding).
Procedure, shortened: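 An Agilent 4 × 180k array of primer-extended double-stranded 36-bp intergenic genomic probes, with negative controls, was incubated for 1 h with GST-tagged P. falciparum DNA-binding domains expressed in E. coli. Alexa488 anti-GST antibody detected bound protein, scanned at 488 nm. Binding intensity is the highest Masliner-normalised natural-log median intensity across replicate spots of either probe orientation.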

Sequence	gcPBM binding intensity (ln)
ATATATATATATTTCGTGCACTGATAATATTATTTT	10.3 ± 0.49
TATATTTTAATTTGAAGTACTAATATTTATTTATAT [XGTACX_site7458]	11.1 ± 0.74
TATAACCATATATACACACACATATAAATATAAATA [CACACA_site7089]	9.91
ATGAAAAAAAATAAAAAATATATATATATATATATA [CACACA_negctrl_site236]	9.9 ± 0.73
TTATCATTTGCCATTGTGCACTTATATGCTCACATT	10.3 ± 0.23
TTTTTTTTTCAAGAGGTGCGTGTATTTTAACAAAAA	10.3 ± 0.43
AAAAAAAATTATGAAGTGCATTAGTGAATTTGATTG	9.92 ± 0.085
TTTTTCACACTTCAAAAGTGTCAACCTTCTATTCTC [TGCATGCA_negctrl_site489]	10.15 ± 0.085
CAGTTTACTAATATTGCACACGAATATGAAAAAGAG [CACACA_site8941]	10.6 ± 0.39
TACATATATTATTGCACACATATAAAATACCCCCAA [CACACA_site3895]	10.9 ± 0.57
TTGTCTACAAAAATGTGCTTCTAATCATACGACTTG [CACACA_negctrl_site46]	10.1 ± 0.16
GTAAAATTTACATAGAGTACTTATATTTTTTTCTGC [XGTACX_site3414]	11.3 ± 0.79
CACAAATATACAAATACACACAAATATACAAATACA [CACACA_site2385]	10.12 ± 0.049
CACAATGTAGTGTATAAATACAATAAAAGGTTGTAT [CACACA_negctrl_site700]	10.2 ± 0.049
AATAAAATGCAATACATTTTGTTATATAATGTTGTT [CACACA_negctrl_site1525]	9.65 ± 0.12
GTATAATTTATTGAACGTACACATATATATATGTAT [XGTACX_site1395]	11.5 ± 1
TAAAGTGTAAAATTCACACACATATATATATATATA [CACACA_site4883]	9.96 ± 0.32
ATATTGTAAGTAAACACACACACATATATCTGTATA [CACACA_site4541]	10.1 ± 0.11
ATTTTTTTTTTCTTTTTTTTTTGTTTTTCTCCTTTT [CACACA_negctrl_site1182]	9.69 ± 0.19
ATTTTTTTTATTATTACACACATATAATAAAAAAAT [CACACA_site1802]	10.2 ± 0.35

Sequence	gcPBM binding intensity (ln)
TATTTGTAAAAATTGTGTACTTAGAAAATTCCAAAA [XGTACX_site6007]	11.3 ± 0.81
TATATGTTTTTATGTACACACTTTTAACCTAAGAAA [CACACA_site4769]	11.6 ± 0.97
TTCTTGTATATATTTTGTACATATATACCATTTTAG [XGTACX_site2409]	10.7 ± 0.38
TATTTCTTATTACATACACACATATACATAGATGAC [CACACA_site5729]	10.2 ± 0.24
TCTTGTCTACCTTGTATTTAATATTTACATATATAA [TGCATGCA_negctrl_site320]	10.3 ± 0.2
ATAGGTAATAATAATACACACGGTGAAATATAGATG [CACACA_site9336]	10.1 ± 0.16
AAATGTATAGGAATAATAATAAAAAAAAAAAAAAAT [CACACA_negctrl_site1793]	9.515 ± 0.049
AAAAAAAATAAAATAATAAAAATTATGAATATATAT [CACACA_negctrl_site280]	9.42 ± 0.16
TGGAGGTCAGTTCACAGTACCCAGTAACTCTACGGA [XGTACX_site2549]	10.8 ± 0.51
ATCATTCCACTTTTCACACATATCTCTATTTCTATC [CACACA_site4723]	10.01 ± 0.085
TTAAATGTAATATAATGTACGGATATTTACCATAAA [XGTACX_site1472]	11.1 ± 0.77
AAGTATGTATCACAAAGTACTTAAGCATATATTTAA [XGTACX_site4121]	10.8 ± 0.39
TTGTAATAAATAAAAGTGCATATATGGTTCCACTAT [GTGCAC_site9944]	10.4 ± 0.32
GTATATATAATGTGCCGTACATTTATATATTCAATA [XGTACX_site1051]	10.9 ± 0.54
GTATAATAGAAACACACACACACACCCAAAAAAAAA [CACACA_site2010]	10.5 ± 0.36
TTATTTTTTTATTCATGTACACAAGAACATTTCATT [XGTACX_site5744]	11.3 ± 0.67
TACAAATATGGACACACACACATATATATATATATA [CACACA_site4488]	11.2 ± 0.79
TAAATATATTGGAGAGGTACACTTTTGGCATTGAAA [XGTACX_site8447]	11.2 ± 0.71
ACATATTAAATATGAGTGCAATATATATATATATAA	10.2 ± 0.25
TATAATTATATAAATTGTACATAAAAAGTTTTTACT [XGTACX_site3621]	11.1 ± 0.83

Sequence	gcPBM binding intensity (ln)
TATTATATCTTTTCAAGTACACATAACATACTTATT [XGTACX_site1081]	11.3 ± 0.75
TTAGGTATATATAAACGTACTCACAATATCATATAA [XGTACX_site8743]	11.1 ± 0.71
CAATATATTATATGGGTGCAAACCACATATAAATAA	10.2 ± 0.17
AAGTTTAAAATCTTTGCACACATATAAATAAATATA [CACACA_site2554]	10.2 ± 0.29
ATAAATAAATAAAAAAGTACATTTCCACTTTTAACA [XGTACX_site81]	11.2 ± 0.83
TGCACCCACCAACACACACACAACTAAAAAATAATG [CACACA_site2566]	10.5 ± 0.58
TATATATACTTTTATGTACACACCTATAATATGGGT [CACACA_site1759]	11.3 ± 0.72
AAATGTAATAATAAATGTACAAACATATATATGTAT [XGTACX_site8718]	10.8 ± 0.46
GCTTAAGGTAAATATAAAATATAGTGTATACTTTAG [XGTACX_negctrl_site585]	9.92 ± 0.14
TTACGCTGCTATATAGTGCACATAATATATGACCTG	10.2 ± 0.18
ATAAAAGATATGTATATGTATATGTATATATATATA [TGCATGCA_negctrl_site214]	9.88 ± 0.4
TATAAATAAATAGATACACACATATTTATAAATACA [CACACA_site6219]	9.96 ± 0.14
GTATGTATGTATGTATGTACTTATTAATCAGTAAAA [XGTACX_site3844]	11.4 ± 0.86
ACTTAGGAAATAAAACGTACATTAAATATATACATA [XGTACX_site2990]	11.5 ± 0.83
TGAATAATCAATAGTACACACATATAAATATAAATA [CACACA_site7345]	11.1 ± 0.95
TTTTATTTATTATTATGTACACACTATATTAAAACA [XGTACX_site1265]	11.6 ± 0.78
AATTTTGTATAGGTATCACACATGAAATATATTATT [CACACA_site5526]	10.1 ± 0.13
TTTTTGTTAACAATGGGTACAAAAAAAAGGAAAATA [XGTACX_site7466]	11.3 ± 0.86
